Reference: PubChem BioAssay AID588342 (National Center for Advancing Translational Sciences (NCATS), 2011)
About 25,000 (6.9%) of roughly 360,000 compounds were called active. Inconclusive means that the source gave no clear call. Such entries were picked first, then a sample of the others. Calls follow the shape of the dose curve; as a rule, active = well fitted inhibition curve with a large enough effect; inconclusive = small, poorly fitted or top-dose-only effect; inactive = flat fitted curve, though single readings scatter. Potencies beside an inconclusive call are fits to weak or partial responses and may not hold up.

molecular target: Luciferin 4-monooxygenase (Photinus pyralis) (UniProt P08659); experiment: qHTS profiling assay for firefly luciferase inhibitor/activator using purifed enzyme and Km concentrations of substrates (counterscreen for miR-21 project); conditions: purified FLuc, luminescence inhibition; series mostly up to 57.5 µM; activity change, negative = inhibition: at the top concentration; also: nearly all actives have a fitted effect of over 55% in size;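 as to activity change, negative = inhibition: plate controls were vehicle for no effect and reference inhibitor for full effect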
Method in brief: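 Purified P. pyralis luciferase (10nM final) with 10uM D-luciferin and 10uM ATP (Km levels) in 50mM Tris acetate pH 7.5, 10mM Mg acetate, 0.01% Tween-20, 0.05% BSA; qHTS 6-point titration, ~60 µM downward; luminescence read.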
Potency is read from the fitted curve at half-maximal effect; tags tell the direction and shape of the fitted curve.

UniProt P08659, sequence (P08659 whole entry, looked up): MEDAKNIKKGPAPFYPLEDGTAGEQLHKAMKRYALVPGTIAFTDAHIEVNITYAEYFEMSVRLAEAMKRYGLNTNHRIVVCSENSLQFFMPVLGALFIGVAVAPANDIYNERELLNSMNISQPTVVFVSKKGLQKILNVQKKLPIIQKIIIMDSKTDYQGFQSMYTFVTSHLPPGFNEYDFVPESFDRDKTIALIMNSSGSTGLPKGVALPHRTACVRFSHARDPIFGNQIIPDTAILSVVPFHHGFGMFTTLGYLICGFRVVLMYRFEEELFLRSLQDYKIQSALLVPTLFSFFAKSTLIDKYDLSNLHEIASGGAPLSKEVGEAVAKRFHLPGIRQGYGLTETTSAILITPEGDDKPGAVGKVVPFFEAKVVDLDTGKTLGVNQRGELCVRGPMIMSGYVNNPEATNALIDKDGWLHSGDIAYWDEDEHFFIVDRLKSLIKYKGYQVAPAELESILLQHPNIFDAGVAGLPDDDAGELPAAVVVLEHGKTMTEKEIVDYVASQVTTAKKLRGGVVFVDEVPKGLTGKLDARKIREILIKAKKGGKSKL

Compound | Potency | activity change, negative = inhibition
O=C(Cn1ncc(Cl)c(Cl)c1=O)NCC1CCCCC1 | inconclusive: 37.9 µM [inhibitor, partial curve, poor fit] | –
COc1ccc(N2Cc3ccccc3C2=NC(=O)c2cccc([N+](=O)[O-])c2)cc1 | inconclusive: 23.9 µM [inhibitor, single point] | –
COc1ccc(N=Nc2nc3cc(Br)c(Br)cc3n2C)c(OC)c1 | active: 5.36 µM | –
O=c1oc(-c2cc3ccccc3o2)nc2sc3c(c12)CCCC3 | active: 2.39 µM | –
Fc1ccc(/C=N/c2c(-c3ccc(F)cc3)nc3n2CCS3)cc1 | – | inactive: 1.44%
COc1cccc(Nc2ncc(C#N)c(N)n2)c1 | inconclusive: 30.1 µM [inhibitor, single point] | –
c1ccc(Oc2cccc(OCCn3cncn3)c2)cc1 | inconclusive: 37.9 µM [inhibitor, partial curve, poor fit] | –
CC(C)n1c(COc2ccccc2)nc2ccccc21 | inconclusive: 33.8 µM [inhibitor, partial curve, poor fit] | –
CC1CCC(NC(=O)CNC(=O)c2ccc3ccccc3c2)CC1 (stereo not given) | inconclusive: 19 µM [inhibitor, single point] | –
CCCCC(=O)Nc1ccc(NC(=O)c2ccco2)cn1 | inconclusive: 21.3 µM [inhibitor, partial curve, poor fit] | –
N#CC1(NC(=O)Cn2ncc(Cl)c(Cl)c2=O)CCCCC1 | – | inactive: 5.97%
C#CCSc1nnc(-c2ccc([N+](=O)[O-])cc2)o1 | inconclusive: 16.9 µM [inhibitor, partial curve] | –
O=C(OCc1nnc(-c2ccccc2)o1)c1cccnc1Cl | inconclusive: 26.9 µM [inhibitor, partial curve, poor fit] | –
N#Cc1ccccc1NC(=O)Nc1ccccc1 | inconclusive: 26.9 µM [inhibitor, single point] | –
COC(C(=O)Nc1ccnn1C1CCN(Cc2nccs2)CC1)c1ccccc1 (stereo not given) | – | inactive: 2.79%
CCC(C)N(C(=O)c1csnn1)C(C(=O)NC1CCCC1)c1ccccc1F (stereo not given) | – | inactive: -0.488%
CC(=O)N1N=C(c2cccc(NS(C)(=O)=O)c2)CC1c1ccc2c(c1)OCO2 (stereo not given) | inconclusive: 30.1 µM [inhibitor, partial curve, poor fit] | –
Cc1c(C(=O)Nc2ccccc2F)sc2ncn(CC(=O)N3CCCCC3)c(=O)c12 | – | inactive: -2.47%
COc1ccc(/C=N\Nc2ccccc2[N+](=O)[O-])c(C(=O)O)c1OC | inconclusive: 26.9 µM [inhibitor, single point] | –
CCOc1ccccc1NC(=O)NCCC1=CCCCC1 | inconclusive: 37.9 µM [inhibitor, partial curve, poor fit] | –
